# In all, about 52,000 compounds went through this assay and about 1,700 (3.3%) were called active. No stated cut-off is given here; in the data, active means survival mostly below about 52% (no sharp cut-off); inactive means mostly above about 56%. This is one part of the list.
# System: Wild type
# Experiment: S. aureus survival, RN4220 and DeltatarO strains – OD600, teichoic acid synthesis inhibitors, primary screen (AID 463173)
# Settings: S. aureus RN4220 wild type/DeltatarO growth, OD600, 18 h, active compounds read low, screened at 18.75 µg/mL (by protocol)
row,SMILES,survival
1,Cc1oc2c(c1C(=O)Nc1ccc(Cl)cc1F)C1=NCCN1C=N2,inactive: 93%
2,O=C(Nc1ccc2ncccc2c1)c1ccccc1,inactive: 87%
3,Cc1cccc(C)c1OCC(=O)N(Cc1ccc(Cl)cc1)CC1CCCO1 (stereo unspecified),inactive: 79%
4,CCCN(Cc1cccs1)C(=O)Nc1ccccc1C,inactive: 92%
5,CC1CCCN(c2csc3ccccc3c2=O)C1 (stereo unspecified),inactive: 97%
6,COc1ccc(N2C(=O)CC(N3CCCCC3C)C2=O)cc1 (stereo unspecified),inactive: 97%
7,Cn1c(=O)c2c(nc(NCCc3ccccc3)n2Cc2ccc(Cl)c(Cl)c2)n(C)c1=O,inactive: 83%
8,CC(C)c1nn2c(=O)cc(COC(=O)c3ccccc3NC(=O)c3cccs3)nc2s1,inactive: 83%
9,CCOc1ccc(N(Cc2cc3cc(C)ccc3[nH]c2=O)C(=O)c2cccc(Cl)c2)cc1,inactive: 88%
10,COc1ccc(S(=O)(=O)NCCc2cn3ccsc3n2)cc1OC,active: -3%
11,O=C(O)CCCC1OC(CCCC(=O)O)OC(CCCC(=O)O)O1 (stereo unspecified),inactive: 110%
12,CCOC(=O)C1CCN(CCC(=O)Nc2ccccc2Cl)CC1,inactive: 138%
13,CCn1c2ccccc2c2nnc(N3CCN(c4cccc(C)c4C)CC3)nc21,inactive: 88%
14,O=C(NCCCN1CCOCC1)c1ccc2c(c1)N(Cc1ccccc1)C(=O)c1ccccc1S2,inactive: 88%
15,Cc1ccc(C)c(CN2CCC(CNC(=O)Cn3ncc4c([nH]c5ccccc54)c3=O)CC2)c1,inactive: 79%
16,CCOc1ccc(NC(=O)NC(C)c2c(-n3cccc3)sc(C)c2C)cc1 (stereo unspecified),inactive: 85%
17,CCOC(=O)CSc1nc2sc3c(c2c(=O)n1Cc1ccccc1)CC(C)CC3 (stereo unspecified),inactive: 68%
18,Cc1ccc(-n2ncc3c(NCCc4ccccc4)ncnc32)cc1C,inactive: 111%
19,CCOc1ccccc1CNC(=O)CN1C(=O)CCCc2ccccc21,inactive: 93%
20,N#Cc1c(SCC(=O)Nc2nccs2)nc(N2CCOCC2)c2c1CCCC2,inactive: 113%
21,Cc1cccc(OCCCCn2nnc3sc4c(c3c2=O)CCC(C)C4)c1 (stereo unspecified),inactive: 84%
22,O=C(Cn1nc(N2CCN(c3ccccc3)CC2)ccc1=O)NCc1cccc(Cl)c1,inactive: 129%
23,Cc1nc2nc(SCC(=O)NCc3ccccc3)nn2c(C)c1Cc1ccccc1Cl,inactive: 128%

row,SMILES,survival
1,O=C(COc1ccccc1)Nc1ccc(C(=O)OCc2cc(=O)n3nc(C4CC4)sc3n2)cc1,inactive: 64%
2,Cc1ccc(OCCSc2nc3ccc(NC(=O)COc4ccc(F)cc4)cc3s2)cc1,inactive: 95%
3,CCN(CC)CCNC(=O)C1CCN(S(=O)(=O)c2c(C)noc2/C=C/c2ccccc2F)CC1,inactive: 102%
4,COc1ccc(-n2c(/C=C/c3cc(OC)c(OC)cc3OC)nc3cc4ccccc4cc3c2=O)cc1Cl,inactive: 115%
5,CCc1cccc(C)c1NC(=O)CN1CCCN(Cc2ccc(C)cc2)S1(=O)=O,active: 0%
6,COc1ccc(-c2c(C)nn3c(C(F)(F)F)cc(-c4ccc(Br)cc4)nc23)cc1,inactive: 96%
7,O=C(Cc1cccs1)NC1CC(=O)N(c2ccccc2)C1 (stereo unspecified),inactive: 78%
8,CCOC(=O)c1cc(-c2ccc(F)cc2)n(CC(=O)NC2CCCCC2)c1C,inactive: 65%
9,Cc1cc(C)n2c(Nc3c(C)cccc3C)c(-c3ccsc3)nc2n1,inactive: 76%
10,O=C(CN1CCCN(Cc2ccccc2Cl)S1(=O)=O)Nc1ccc2c(c1)OCCO2,inactive: 60%
11,CCOc1ccc(-c2ccc(NS(=O)(=O)c3cc(C)c(C)cc3C)cc2)nn1,inactive: 78%
12,CCCOc1ccc(/C=N/NC(=O)CN2CCCCC2)cc1,inactive: 103%
13,CCN(C(=O)COc1cc(=O)n(C)c2ccccc12)c1cccc(C(F)(F)F)c1,inactive: 72%
14,Cc1ccccc1CN1CCc2nc(Nc3ccc4c(c3)OCCO4)ncc2C1,inactive: 93%
15,O=C(O)Cn1c2ccccc2c2n[nH]c(=S)nc21,inactive: 106%
16,O=C(c1cc2c(=O)[nH]c3ccccc3c2s1)N1CCN(c2ccc(F)cc2)CC1,inactive: 61%
17,CC(NC(=O)CCn1c(=O)c2cccn2c2ccc(F)cc21)c1ccccc1 (stereo unspecified),inactive: 97%
18,CCOc1ccc(C(=O)Nc2ccc(-c3nc4cc(CC)ccc4o3)cc2)cc1,inactive: 79%
19,COc1cccc(NC(=O)c2oc3ccccc3c2NC(=O)C23CC4CC(CC(C4)C2)C3)c1,inactive: 73%
20,COc1ccc(CN2COc3ccc4c(C)cc(=O)oc4c3C2)cc1,inactive: 72%
21,COc1cccc2c1Oc1nc(-c3ccccc3)nc(SCC(=O)N3CCCCC3)c1C2,inactive: 113%
22,CCN(CC)C(=O)CSc1nc2ccccc2c(=O)n1CC,inactive: 107%
23,CCn1c2ccccc2c2cc(C3C(C#N)=C(N)Oc4n[nH]c(C(C)C)c43)ccc21 (stereo unspecified),inactive: 82%

row,SMILES,survival
1,COc1ccccc1NC(=O)Cn1c(=O)n(Cc2ccccc2)c(=O)c2ccccc21,inactive: 64%
2,COC(=O)c1ccc(NC(=O)Nc2nnc(N(C)C3CCCCC3)s2)cc1,inactive: 86%
3,CCCOc1ccc(Nc2nc(SC)ncc2C(=O)OCC)cc1,inactive: 86%
4,O=C(CCn1c(=O)c2cccn2c2ccc(F)cc21)NCCc1ccccc1Cl,inactive: 60%
5,Cc1coc2c(C)c3oc(=O)c(CC(=O)N4CCCCC4)c(C)c3cc12,inactive: 83%
6,COc1ccc(-c2nc3nc(C)cc(Nc4ccc(C(C)=O)cc4)n3n2)cc1,inactive: 92%
7,Cc1cc(C)cc(-n2c(SCC(=O)Nc3nnc(C)s3)nc3c([nH]c4ccccc43)c2=O)c1,inactive: 74%
8,COC(=O)c1ccc(NC(=O)Cc2coc3cc(C)ccc23)cc1,inactive: 106%
9,COC(=O)CSc1nnc2n1C(C)(C)Cc1ccccc1-2,inactive: 99%
10,COc1ccccc1-c1ccnc2[nH]n(-c3ccccc3)c(=O)c12,inactive: 62%
11,CCOc1ccc(C2C(=O)N(C3CCCCCC3)CC(=O)N2CCc2ccccc2)cc1OC (stereo unspecified),inactive: 75%
12,COc1ccc(Cn2ccnc2SCC(=O)NCc2ccccc2)cc1,inactive: 72%
13,CCC1CCCCN1C(=O)c1nn(-c2ccc(C)cc2)c(=O)c2c1c1ccccc1n2C (stereo unspecified),inactive: 86%
14,CCOc1ccc(CCNC(=O)c2cnc3sc(N4CCOCC4)nn3c2=O)cc1,inactive: 80%
15,Cc1ccc(C)c(S(=O)(=O)NCC(c2ccco2)S(=O)(=O)c2ccc(F)cc2)c1 (stereo unspecified),inactive: 130%
16,COc1cccc(C2C3=C(CCCC3=O)N(C)C3=C2C(=O)CCC3)c1,inactive: 107%
17,Cc1cccc(C=Nc2ccc(-c3nc4ccccc4o3)cc2)c1O,inactive: 122%
18,CCOc1ccc(C(=O)Nc2ccc(S(=O)(=O)N3CCCCC3c3cccnc3)cc2)cc1 (stereo unspecified),inactive: 73%
19,CCc1cccc(C)c1NC(=O)Cn1c(=O)cc(C(F)(F)F)c2c(C)nn(C)c21,inactive: 80%
20,Cc1cccc(N2CCN(c3nc4ccccc4c(=O)n3-c3ccc(Cl)cc3)CC2)c1C,inactive: 87%
21,Cc1noc(C)c1S(=O)(=O)N(CC(=O)NCc1ccccc1Cl)c1ccc(C(C)C)cc1,inactive: 82%
22,O=C(Nc1ccc(F)cc1F)c1c2c(nc3ccccc13)C(=O)N(C1CCCCC1)C2,inactive: 71%
23,Cc1ccc(N2CCN(C(=O)c3ccc4c(Cl)c5c(nc4c3)CCCC5)CC2)c(C)c1,inactive: 94%

row,SMILES,survival
1,O=C(Nc1c(-c2ccccc2)nc2ccccn12)c1ccc(Br)cc1,inactive: 56%
2,O=C(CSc1nc2c([nH]c3ccccc32)c(=O)n1-c1ccccc1)c1ccccc1,inactive: 73%
3,COc1ccc(OC)c(NC(=O)c2ccc(CSc3nnnn3C)cc2)c1,inactive: 96%
4,O=C(NCc1cccs1)C1CCN(C(=O)N2CCOc3ccccc32)CC1,inactive: 107%
5,Cc1ccc(N(CC(=O)N2CCN(c3ccc(Cl)cc3)CC2)S(=O)(=O)c2c(C)noc2C)cc1,inactive: 82%
6,CCOC(=O)c1cc(OC(=O)c2ccc(Cl)cc2)n(-c2ccccc2)n1,inactive: 71%
7,COc1ccc(C2C(=O)N(C3CCCCC3)CC(=O)N2Cc2ccccc2Cl)cc1OC (stereo unspecified),inactive: 127%
8,COc1ccc(-c2nn(CC(=O)Nc3ccccc3F)c3c2cnc2ccc(F)cc23)cc1,inactive: 88%
9,O=c1[nH]ncc(NCCc2ccccc2)c1Cl,inactive: 109%
10,CCc1ccc(-n2nc(C)c3c(C(=O)NCCc4ccc(OC)c(OC)c4)cc(C)nc32)cc1,inactive: 71%
11,COc1ccc(CN2COc3ccc4c(-c5ccc(OC)cc5)cc(=O)oc4c3C2)cc1,inactive: 95%
12,CC(=O)Nc1ccc(Nc2ccccc2)cc1,inactive: 97%
13,COc1ccc2c(=O)c(NC(=O)NCCCN3CCCC3=O)c[nH]c2c1,inactive: 113%
14,COc1ccc(N2CCN(S(=O)(=O)CCNC(=O)c3ccc(C(F)(F)F)cc3)CC2)cc1,inactive: 125%
15,Cc1ccc(-c2nc(S(=O)(=O)c3ccc(C)cc3)c(N3CCN(c4ccccc4)CC3)o2)cc1,inactive: 104%
16,Cc1ccc(C)c(N2CCN(CCCNC(=O)Cn3ncc4c([nH]c5ccccc54)c3=O)CC2)c1,inactive: 75%
17,COc1ccc(CNC(=O)Cn2ncn3nc(-c4cccs4)cc3c2=O)cc1,inactive: 83%
18,CC(=O)NC1C(Oc2ccccc2C)OC2COC(C)(C)OC2C1O (stereo unspecified),inactive: 101%
19,CCOC(=O)c1ccc(NC(=O)CCS(=O)(=O)c2ccc3c(c2)oc(=O)n3C)cc1,inactive: 69%
20,CCc1ccccc1N(CC(=O)N1CCc2ccccc2C1)S(C)(=O)=O,inactive: 107%
21,CCCCCn1c(=O)[nH]c2cc(C(=O)NCc3ccc(OC)cc3)ccc2c1=O,inactive: 91%
22,CCc1ccc(NC(=O)C(CC)n2nnc(C(=O)OC)c2C(=O)OC)cc1 (stereo unspecified),active: -1%

# — PubChem BioAssay AID463173 (ICCB-Longwood Screening Facility, Harvard Medical School, 2010)
